Out of some 380,000 compounds screened, about 4,000 (1.1%) were called active. This list was built around the results that the source calls inconclusive (neither active nor inactive); the mix of calls is not that of the screen. Calls follow the shape of the dose curve; as a rule, active = well fitted activation curve with a large enough effect; inconclusive = small, poorly fitted or top-dose-only effect; inactive = no such curve, though single readings can be large or run the other way. Potencies of inconclusive entries are doubtful fits and often do not repeat.
Assay: qHTS Assay to Identify Small Molecule Activators of BRCA1 Expression; also: nearly all actives have a fitted effect of over 80% in size
Settings: MCF7-BRCA1-FFLuc reporter, luminescence, 48 h; activation: at 46.1 µM (top of the series), scaled: vehicle 0%, 10 µM genistein 100% unless noted
Summary of the method: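 Luminescence from a BRCA1-driven firefly luciferase in MCF7 cells was the read-out, taken 15 min after substrate addition following 48 h compound exposure at 37 °C. Data were normalized to a 10 microM genistein control and DMSO vehicle.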
Potency is read from the fitted curve at half-maximal effect; tags tell the direction and shape of the fitted curve.

SMILES	Potency	activation
CC1CCN(c2ccc3c(c2)S(=O)(=O)c2ccccc2C3=O)CC1	inconclusive: 15.8 µM [activator, partial curve, poor fit]	–
Cc1ccc(-c2noc(C3CCCN(C(=O)c4ccccc4)C3)n2)o1 (stereo not drawn)	active: 10 µM	–
O=C(Nc1ccc(NC(=O)C23CC4CC(CC(C4)C2)C3)cn1)c1ccco1	inconclusive: 7.08 µM [activator, partial curve, poor fit]	–
COc1ccc(-c2sc3ccc(OC)cc3c2C#CCCO)cc1	–	inactive: -49%
Clc1cccc2sc(N3CCOCC3)nc12	active: 15.8 µM	–
COc1ccncc1-c1ccc(C2=CC(=O)CC(C)(C)C2=O)cc1	inconclusive: 7.94 µM [activator, partial curve, poor fit]	–
CC(C)Oc1cccc(C(=O)NC2=NCCS2)c1	inconclusive: 12.6 µM [activator, partial curve, poor fit]	–
O=C(CSc1nnc(-c2ccc(O)cc2)o1)Nc1ccccc1	inconclusive: 3.55 µM [activator, full curve, poor fit]	–
CC1CCCCN1C(=O)c1cc(-c2ccc(Cl)c(Cl)c2)on1 (stereo not drawn)	active: 5.62 µM	–
COc1cc(Cl)ccc1OCc1cc(C(=O)N2CC[C@@H]3CCCC[C@H]3C2)no1	inconclusive: 11.2 µM [activator, partial curve, poor fit]	–
Cn1cccc1C(=O)OCC(=O)Nc1sccc1C#N	inconclusive: 28.2 µM [activator, single point]	–
OC(c1ccc(F)c(F)c1)c1nc(-c2csc3ccccc23)cs1 (stereo not drawn)	–	inactive: 2.41%
O=C(CNC(=O)c1ccccc1)c1ccccc1	inconclusive: 2 µM [activator, partial curve, poor fit]	–
COc1cc(-c2cc(C(=O)Nc3ccc(S(=O)(=O)NCc4ccco4)cc3)c3ccccc3n2)cc(OC)c1OC	–	inactive: -44.2%
Cc1cccc2nc(C(=O)Nc3cccc(C(=O)NC4CC4)c3)cn12	inconclusive: 12.6 µM [activator, partial curve, poor fit]	–
O=C(CCC(=O)Nc1cccc(Cl)c1)N/N=C/c1cc([N+](=O)[O-])ccc1O	–	inactive: -59.4%
CN(C)N=Nc1ccc(/C=C2\C=Cc3ccccc32)cc1	inconclusive: 2.51 µM [activator, full curve, poor fit]	–
COc1ccc(NC(=O)c2ccc(-n3nc(C)cc3C)cc2)cc1OC	inconclusive: 22.4 µM [activator, single point]	–
CCCCN1CC(=O)N2[C@H]3c4cc(Cl)ccc4OC[C@@H]3[C@H](C(=O)OCC)[C@]2(C)C1=O	–	inactive: -5.51%
CN(C)C(=O)c1ccc(SC(=S)NCc2ccccc2)cc1	–	inactive: 17.3%
Cc1ccc(-c2csc(NC(=O)c3cccs3)n2)cc1	inconclusive: 2.82 µM [activator, full curve, poor fit]	–
Cc1ccc(NC(=O)COc2ccc3c(c2)OCO3)c(Cl)c1	active: 14.1 µM	–
O=c1c(-c2ccc(O)cc2)coc2cc(O)cc(O)c12	inconclusive: 10 µM [activator, partial curve, poor fit]	–
O=C1CCCc2nc(N3CCN(C(=O)c4ccco4)CC3)ncc21	inconclusive: 2.51 µM [activator, partial curve, poor fit]	–
N/C(=N\OC(=O)c1ccc(Cl)cc1Cl)c1ccncc1	inconclusive: 1.58 µM [activator, full curve, poor fit]	–

SMILES	Potency	activation
Nc1cccc(C(=O)OCC(=O)c2ccccc2)c1	active: 7.94 µM	–
Cc1ccnc(N(C(=O)Nc2ccccc2)C2=NCC(C)(C)S2)c1	active: 3.16 µM	–
CC(C)Oc1cc(F)ccc1-c1cc(C(=O)NC2CCCCC2)[nH]n1	–	inactive: -4.93%
O=C(O)c1cccc(NC(=O)c2cn(-c3ccccc3)nc2-c2cc3ccccc3o2)c1	inconclusive: 17.8 µM [activator, single point]	–
Cc1cc(C(=O)COC(=O)c2ccc(O)cc2)c(C)n1Cc1ccco1	active: 2.82 µM	–
CCn1c(=O)n(CC)c2cc(N3CCCC3)c(NC(=O)c3ccccc3Br)cc21	–	inactive: -43.1%
Cc1ccc(C(=O)Nc2ncc(Cc3ccccc3)s2)o1	–	inconclusive: 66.9% [activator] [at 1.84 µM, scaled: vehicle 0%, 10 µM genistein 100%]
CCOC(=O)CCNC(=O)N1CCCC(N2CCN(c3ccc(OC)cc3)CC2)C1 (stereo not drawn)	–	inactive: -16.3%
Cc1cc(C(=O)N/N=C/c2cc(Cl)cc([N+](=O)[O-])c2O)c2ccccc2n1	–	inactive: -84.4%
CN(C(=O)c1ccccn1)c1nnc(-c2ccccn2)s1	active: 11.2 µM	–
CCOC(=O)c1ccc(Nc2nc(=O)c3cccnc3s2)cc1	inconclusive: 12.6 µM [activator, partial curve, poor fit]	–
CC(=O)Nc1ccc(C(=O)OCc2ccc(F)cc2)cc1	–	inactive: 10.4%
COc1ccc(/C=C/C(=O)OCC(=O)N(C)CC(=O)Nc2ccc(C)cc2)c(OC)c1	inconclusive: 20 µM [activator, single point]	–
C=CCNC(=O)Nc1ccc2oc(C)nc2c1	–	inactive: 1.55%
O=C(Cc1ccccc1)Nc1ccc2c(c1)CCC2	inconclusive: 10 µM [activator, partial curve, poor fit]	–
COc1cccc(N/C=C/c2onc(C)c2[N+](=O)[O-])c1	active: 3.98 µM	–
Cc1ccc(NS(=O)(=O)c2ccc3c(c2)n(C)c(=O)n3C)cc1C	inactive	–
CCc1cc2c(=O)c(-c3ccc4c(c3)OCCO4)coc2cc1OC(=O)c1ccco1	inconclusive: 1.78 µM [activator, full curve, poor fit]	–
Fc1ccc(Nc2ncnc3onc(-c4cccc(Cl)c4)c23)c(F)c1	–	inactive: 4%
CCCCCCOC(=O)NCC(O)c1ccccc1 (stereo not drawn)	active: 2.82 µM	–
Nc1nc2ccccc2n1C(=O)c1ccco1	inconclusive: 0.501 µM [activator, full curve, poor fit]	–
N#Cc1nc(-c2ccc(Cl)cc2)oc1NCc1ccco1	inconclusive: 11.2 µM [activator, partial curve, poor fit]	–
CNc1ccc(/C=C(\C#N)c2ccccn2)cc1[N+](=O)[O-]	active: 10 µM	–
COc1cc2c(cc1NC(=O)CN(C)Cc1ccc(OC)c(OC)c1)oc1ccccc12	–	inactive: -53%
Cn1cccc1-c1nc2ccc(NC(=O)c3cccs3)cc2[nH]1	inconclusive: 7.94 µM [activator, partial curve, poor fit]	–

SMILES	Potency	activation
COc1cccc(NC(=O)n2ncc3c(C)cccc32)c1	inconclusive: 0.501 µM [activator, full curve, poor fit]	–
CN(C)C(=O)c1ccc(-c2cc3onc(-c4ccccc4)c3c(=O)n2C)cc1	inconclusive: 0.631 µM [activator, full curve, poor fit]	–
Cc1cc(C)nc(NS(=O)(=O)c2ccc(NC(=O)c3ccc(N4C(=O)CCC4=O)cc3)cc2)n1	inconclusive: 35.5 µM [activator, single point]	–
CC(C)(C)OC(=O)N1CCC(C(=O)Nc2ccc3c(c2)CCC3)CC1	inconclusive: 1.58 µM [activator, full curve, poor fit]	–
O=C(Nc1sc2c(c1C(=O)O)CCCC2)c1cccc(Cl)c1	active: 11.2 µM	–
O=C(O)/C=C/C(=O)c1c(-c2ccccc2)[nH]c2ccccc12	–	inactive: -43.9%
Cc1ccc(NC(=O)Nc2cnccn2)cc1	inconclusive: 3.55 µM [activator, partial curve, poor fit]	–
Cc1cccnc1NC(=S)NCCc1ccccc1	inconclusive: 11.2 µM [activator, partial curve, poor fit]	–
Brc1ccc(-c2nnc(-c3ccc4c(c3)OCO4)o2)o1	inconclusive: 1.58 µM [activator, partial curve, poor fit]	–
O=C(COc1ccccc1Cl)Nc1ccc(Cl)cn1	active: 10 µM	–
C[C@@H](C(=O)Nc1ccc2c(c1)OCCO2)n1nnc2ccccc2c1=O	inconclusive: 5.01 µM [activator, partial curve, poor fit]	–
COc1cccc(C(=O)c2cc3cc(Cl)ccc3[nH]2)c1	–	inactive: 76.6%
CCOc1ccc(OCc2cccc(C(=O)Nc3ccc(CN4CCCCC4)cc3)c2)cc1	–	inconclusive: -73.2% [activator]
O=C(CNc1ccccc1OC(F)F)N1CCc2ccccc21	inconclusive: 7.08 µM [activator, partial curve, poor fit]	–
CC(=O)c1c(C)oc2c(Br)cc(NS(=O)(=O)c3ccc(Br)cc3)cc12	–	inactive: 3.28%
Cc1ccc(C(=O)C=CNNC(=O)c2ccccc2)cc1	–	inactive: 74.9%
COc1ccc(NC(=O)Nc2nc3c(s2)CCCC3)cc1	inconclusive: 1 µM [activator, full curve, poor fit]	–
CC(=O)c1c(C)[nH]c(C(=O)Nc2ccc(Cl)cc2F)c1C	inconclusive: 1 µM [activator, full curve, poor fit]	–
Cc1ccc(-c2nnc(-c3ccc(NC(=O)Cc4cccs4)cc3)o2)cc1	–	inactive: -20.3%
CC(=O)Nc1ccc2c(c1)nc1n2CCN(C2CCCCC2)C1	inconclusive: 2.51 µM [activator, full curve, poor fit]	–
NC(=NCc1ccco1)NC(=O)c1ccc(Cl)cc1	active: 11.2 µM	–
COc1ccc(NC(=O)c2ccccn2)cc1OC	inconclusive: 11.2 µM [activator, partial curve, poor fit]	–
COc1ccc(-c2ccc3ccccc3n2)cc1OC	inconclusive: 2.51 µM [activator, full curve, poor fit]	–

Reference: PubChem BioAssay AID624202 (National Center for Advancing Translational Sciences (NCATS), 2012)
